# Test results from the supplement of paper PMC3724861.
# The list shows a part of the results.
# Test system: T1, Caupolican (Caup) homeodomain DNA-binding domain
# T1 sequence: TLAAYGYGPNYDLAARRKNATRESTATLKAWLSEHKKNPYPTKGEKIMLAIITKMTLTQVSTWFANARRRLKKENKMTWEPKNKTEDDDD
# Test: PBM E-score (8-mer, recovered from the published 9-mer minima) (E-score (dimensionless, -0.5 to 0.5)); Drosophila protein; higher = stronger relative binding preference, active = 0.31 or more
# Method in brief: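 An enrichment score, with higher meaning stronger, expresses relative binding preference for each short DNA word. The protein used was Caup's homeodomain DNA-binding domain (residues 214-303), produced by in vitro transcription and translation and tested at 100 nM on custom-designed protein binding microarrays. The 8-mer values were recovered from published 9-mer scores, each equal to the lower of its two constituent 8-mer scores.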
row,Sequence,PBM E-score
1,ATGCGTTC,inactive: -0.00798
2,AACTAGCT,≥ 0.124
3,CAGGATGA,inactive: -0.0168
4,AACGCTGA,inactive: -0.0784
5,TGTAAAAA,inactive: 0.293
6,CGCAGGAA,inactive: -0.134
7,TACTTAAA,inactive: -0.0138
8,CAGCGGCG,inactive: -0.118
9,CCTATCAA,inactive: 0.0398
10,CTCGATAC,inactive: 0.133
11,AAGTGTAT,inactive: 0.144
12,CCTAGAAA,inactive: -0.0952
13,AGCAAAAG,inactive: -0.0454
14,ACTTGACT,inactive: 0.102
15,CGCTCCTA,inactive: -0.0825
16,ATCGCGTC,inactive: 0.0197
17,CAATATGC,inactive: 0.0545
18,AGGTTTTA,inactive: -0.00666
19,AGTGCACG,inactive: 0.0451
20,CGATTGCC,inactive: -0.0353
21,CGCCGCAA,inactive: -0.126
22,ACCAGTTG,inactive: 0.116
23,AATCTTTA,inactive: 0.0372
24,CCCGGTAA,inactive: -0.059
25,ACTACTAA,inactive: 0.174

row,Sequence,PBM E-score
1,AACTCTAT,inactive: -0.0613
2,AAATTCGT,≥ 0.126
3,TCCCTGAA,inactive: -0.0336
4,CTAGTCTA,inactive: -0.0394
5,CGCCACGC,inactive: -0.254
6,CTATAGAG,inactive: -0.0434
7,CCTTGGTC,inactive: -0.0882
8,AAAAGCTC,inactive: -0.126
9,CGTGTAAA,active: 0.377
10,TAGCAAAA,inactive: 0.105
11,CTACCATA,inactive: 0.0534
12,CCTAGACC,inactive: -0.113
13,GTGACCAC,inactive: -0.0317
14,AACCAGGA,inactive: 0.0369
15,CTGTGACC,inactive: -0.113
16,GCGCCTAC,inactive: -0.0745
17,CCGCCGTA,inactive: -0.207
18,CCCCCCAA,inactive: -0.255
19,GAGGAACA,inactive: 0.155
20,CCCGTGGA,inactive: -0.104
21,ATTACTTG,inactive: 0.245
22,ATGCGCTG,inactive: -0.0119
23,CACCAAAC,inactive: 0.0517
24,ACACGCAT,inactive: 0.278
25,GATCCTTA,inactive: 0.0979

row,Sequence,PBM E-score
1,GAACTCTC,inactive: -0.0817
2,AATACGGT,inactive: 0.00013
3,GGGTGGGA,inactive: -0.0979
4,AGAAGGCG,inactive: -0.172
5,CTGGATCC,inactive: -0.125
6,ACTCCGAA,inactive: -0.0804
7,AAAAGGTA,inactive: 0.0466
8,ACTATTAG,inactive: 0.103
9,CATGTAAA,active: 0.421
10,TAGTCATA,inactive: 0.171
11,AATACCAT,≥ 0.265
12,GGAAGACA,inactive: 0.12
13,ATAAAGAA,inactive: 0.125
14,TAAGGGCA,≥ -0.0465
15,CAATCATA,inactive: 0.185
16,ACCAGGGC,inactive: -0.112
17,ATCGGTAG,inactive: 0.0388
18,ATTCAAGC,inactive: 0.05
19,ACTACGGA,inactive: 0.0378
20,AACACTGC,inactive: 0.0819
21,TCTGGTCA,inactive: 0.00845
22,CACTAGGC,inactive: -0.0461
23,AGGAGTGG,inactive: -0.118
24,CACCAAAA,inactive: -0.00895
25,CCAATGGC,inactive: -0.17

row,Sequence,PBM E-score
1,AGTCAGCC,inactive: -0.129
2,CCGAGTCA,inactive: -0.0177
3,TACCCGGA,≥ -0.0327
4,GATAAAAC,inactive: 0.112
5,CCAGCATC,inactive: -0.136
6,AATCGTAA,inactive: 0.173
7,CATGAATC,inactive: 0.0786
8,GTGCTGTA,inactive: 0.115
9,GAGACCGC,inactive: -0.221
10,CGCTTGTC,inactive: 0.272
11,AGCAGCGG,inactive: -0.202
12,ACCGCTCT,inactive: -0.16
13,CTGATCTA,inactive: 0.0465
14,CTACCCCA,inactive: -0.12
15,AAACGTTC,inactive: -0.0225
16,AGCTGAGA,inactive: -0.134
17,AGCTAGAA,inactive: -0.0295
18,CAGCAACG,inactive: 0.0355
19,GGACGACC,inactive: -0.118
20,CCCGGTCG,inactive: -0.25
21,ATGGCTCC,inactive: -0.0423
22,CCGCGACC,inactive: -0.249
23,TAAAGTTA,inactive: 0.083
24,GAGGCTCC,inactive: -0.134
25,AAATTGCC,inactive: -0.0176

row,Sequence,PBM E-score
1,AGCCACGC,inactive: -0.235
2,CAAGGGCC,inactive: -0.135
3,AAGTTCCA,inactive: -0.0168
4,ATAGTTTG,inactive: 0.145
5,AAAACCCC,inactive: -0.151
6,TCTACACA,inactive: 0.157
7,CCCGCAGA,inactive: -0.21
8,GCCTTGAA,inactive: -0.119
9,AATCCTAG,inactive: -0.0191
10,ATGCGAGG,inactive: -0.0607
11,ATGCGATA,inactive: 0.12
12,GCGGTTTA,inactive: 0.0192
13,CAAATGAA,inactive: 0.0763
14,TCCCCCCA,inactive: -0.352
15,CGACTCCC,inactive: -0.0785
16,ACCATACT,inactive: 0.137
17,AAAGATGC,inactive: -0.0199
18,TAAGAAGA,inactive: -0.0192
19,ATACCGAT,inactive: 0.0703
20,AATTATAA,inactive: 0.108
21,TACCTTGA,inactive: 0.0541
22,ATGAAAGG,inactive: -0.031
23,GCGAACCA,inactive: -0.0128
24,CCACGCAG,inactive: -0.167
25,CATAAGAA,inactive: 0.146

row,Sequence,PBM E-score
1,GGAGCCTA,inactive: -0.191
2,AAGTGCGC,inactive: -0.114
3,GTATAAAC,inactive: 0.125
4,GAGGCGCA,inactive: -0.169
5,CCCAAATA,inactive: -0.0284
6,TAAATGGA,inactive: 0.0634
7,GAAGACCC,inactive: -0.204
8,AGTATGGG,inactive: -0.0126
9,ATGTCAAG,inactive: 0.309
10,AAATAGGC,inactive: -0.0525
11,CTAATAGC,inactive: -0.0695
12,ACCGTTGC,inactive: -0.134
13,AGGTTGCG,inactive: -0.121
14,TACGGTCA,inactive: -0.0134
15,CGAGCTAC,inactive: 0.0214
16,GATCATAA,inactive: 0.124
17,AGTCCTAC,inactive: 0.0649
18,AAACATAC,inactive: 0.292
19,CATTAATC,inactive: 0.128
20,AGGACCAT,inactive: -0.00978
21,GGAGGTCA,inactive: -0.134
22,ATGCGATC,inactive: 0.0365
23,CACGACTG,inactive: 0.0114
24,CCTACGGC,inactive: -0.245
25,TCGCGGCA,inactive: -0.229

row,Sequence,PBM E-score
1,ACCCCTCA,inactive: -0.091
2,CCCGTCAG,inactive: -0.237
3,AACTGTGA,inactive: 0.0854
4,GGAAAGTA,inactive: 0.0062
5,TGCGCCCA,inactive: -0.134
6,TGACAAAA,inactive: 0.186
7,AGATACAT,active: 0.368
8,TCACGGGA,inactive: 0.00917
9,CATCGCAA,inactive: 0.0975
10,ACACGACT,inactive: 0.251
11,GGACAACA,active: 0.336
12,ACCTTCGA,inactive: -0.0125
13,CAGCTTAA,inactive: 0.0168
14,GAACCTGA,inactive: 0.00903
15,ATAAGAGA,inactive: 0.064
16,GTGAAATA,inactive: 0.161
17,ATAAAACC,inactive: 0.0396
18,CTACGCGA,inactive: -0.0597
19,AACTTCAA,inactive: 0.166
20,ATACATAG,inactive: 0.292
21,CATGACAG,inactive: 0.151
22,AAGCGAGC,inactive: -0.103
23,TGGACCCA,≥ -0.0464
24,AACCAATC,≥ 0.122
25,AAATGAGT,inactive: 0.0817

row,Sequence,PBM E-score
1,ACGAAAGT,inactive: 0.0147
2,GCAAGCGC,inactive: -0.154
3,GGACACCC,inactive: -0.0581
4,ACCCCAAT,≥ 0.0252
5,AGTCAGTC,inactive: -0.0572
6,GAGCTAAC,inactive: -0.0389
7,AATTCCGG,inactive: -0.0689
8,ACTCAACC,inactive: -0.0321
9,GCCGGCCA,inactive: -0.229
10,CGAGCGGC,inactive: -0.235
11,CAAAGCAA,inactive: 0.0327
12,CCCATCCA,inactive: -0.0121
13,CGATGCCG,inactive: -0.203
14,ATAGGAAA,inactive: 0.0909
15,AGTCCTTC,inactive: -0.106
16,ATCCTATC,inactive: 0.0788
17,GTGAGACA,inactive: 0.0534
18,GCCAAACC,inactive: -0.168
19,AGTCAGTA,≥ 0.115
20,GCTCCTCA,inactive: -0.234
21,ATAATTTC,inactive: 0.00693
22,TATACTCA,inactive: 0.151
23,ACGAACCC,inactive: -0.134
24,CCGAAGAA,inactive: -0.128
25,AGGTACAT,active: 0.389

row,Sequence,PBM E-score
1,CCCTAGGA,inactive: -0.141
2,AATCACGA,inactive: 0.0661
3,CAACAGTC,inactive: 0.0344
4,CGGTTTCC,inactive: -0.0505
5,CTCGTATC,inactive: 0.124
6,GAATTATC,inactive: 0.15
7,CCCCATCC,inactive: -0.227
8,CACAAAAC,inactive: 0.0882
9,ATGGTCCA,≥ 0.0351
10,GACATCGC,inactive: 0.185
11,ATAAGGTG,inactive: 0.0188
12,TCGGACAA,inactive: 0.191
13,TTAGATAA,inactive: 0.0531
14,CGTGCATA,inactive: 0.0541
15,CTGTCTGA,inactive: -0.00753
16,ATGTCCGC,inactive: 0.204
17,TCTGTCAA,inactive: 0.157
18,AGAACGCA,inactive: -0.00793
19,TCGATCAA,inactive: 0.00111
20,TGAGCAAA,inactive: 0.0543
21,AGAATTGC,inactive: 0.0219
22,AGTGCTAC,inactive: 0.0654
23,CCAAGGAC,inactive: -0.0684
24,CAAGCTGC,inactive: -0.0962
